Measured values reported in PMC6377148.
Results are given in words; binding and its absence hold for the method and conditions named. Binding seen in cells or lysates may run through a third protein. Some entries that bind do so weakly or less than the wild type. For some of these results: Sequences can lack the tags named with a protein.

Amino acid sequences for entries named in this document (tags omitted).
UniProt P49336: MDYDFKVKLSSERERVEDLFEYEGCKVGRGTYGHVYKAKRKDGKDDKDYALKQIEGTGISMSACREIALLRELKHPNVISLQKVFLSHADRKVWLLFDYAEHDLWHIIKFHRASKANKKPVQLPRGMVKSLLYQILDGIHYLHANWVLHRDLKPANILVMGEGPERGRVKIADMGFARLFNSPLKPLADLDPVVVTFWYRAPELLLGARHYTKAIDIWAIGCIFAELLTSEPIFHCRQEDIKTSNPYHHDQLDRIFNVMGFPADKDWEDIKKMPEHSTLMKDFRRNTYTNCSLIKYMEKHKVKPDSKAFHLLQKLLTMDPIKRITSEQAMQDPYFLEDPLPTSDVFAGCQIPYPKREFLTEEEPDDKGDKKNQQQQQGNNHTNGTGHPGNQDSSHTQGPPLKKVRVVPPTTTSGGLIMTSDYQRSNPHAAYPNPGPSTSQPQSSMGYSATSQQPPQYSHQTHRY
UniProt Q7Z2Z1: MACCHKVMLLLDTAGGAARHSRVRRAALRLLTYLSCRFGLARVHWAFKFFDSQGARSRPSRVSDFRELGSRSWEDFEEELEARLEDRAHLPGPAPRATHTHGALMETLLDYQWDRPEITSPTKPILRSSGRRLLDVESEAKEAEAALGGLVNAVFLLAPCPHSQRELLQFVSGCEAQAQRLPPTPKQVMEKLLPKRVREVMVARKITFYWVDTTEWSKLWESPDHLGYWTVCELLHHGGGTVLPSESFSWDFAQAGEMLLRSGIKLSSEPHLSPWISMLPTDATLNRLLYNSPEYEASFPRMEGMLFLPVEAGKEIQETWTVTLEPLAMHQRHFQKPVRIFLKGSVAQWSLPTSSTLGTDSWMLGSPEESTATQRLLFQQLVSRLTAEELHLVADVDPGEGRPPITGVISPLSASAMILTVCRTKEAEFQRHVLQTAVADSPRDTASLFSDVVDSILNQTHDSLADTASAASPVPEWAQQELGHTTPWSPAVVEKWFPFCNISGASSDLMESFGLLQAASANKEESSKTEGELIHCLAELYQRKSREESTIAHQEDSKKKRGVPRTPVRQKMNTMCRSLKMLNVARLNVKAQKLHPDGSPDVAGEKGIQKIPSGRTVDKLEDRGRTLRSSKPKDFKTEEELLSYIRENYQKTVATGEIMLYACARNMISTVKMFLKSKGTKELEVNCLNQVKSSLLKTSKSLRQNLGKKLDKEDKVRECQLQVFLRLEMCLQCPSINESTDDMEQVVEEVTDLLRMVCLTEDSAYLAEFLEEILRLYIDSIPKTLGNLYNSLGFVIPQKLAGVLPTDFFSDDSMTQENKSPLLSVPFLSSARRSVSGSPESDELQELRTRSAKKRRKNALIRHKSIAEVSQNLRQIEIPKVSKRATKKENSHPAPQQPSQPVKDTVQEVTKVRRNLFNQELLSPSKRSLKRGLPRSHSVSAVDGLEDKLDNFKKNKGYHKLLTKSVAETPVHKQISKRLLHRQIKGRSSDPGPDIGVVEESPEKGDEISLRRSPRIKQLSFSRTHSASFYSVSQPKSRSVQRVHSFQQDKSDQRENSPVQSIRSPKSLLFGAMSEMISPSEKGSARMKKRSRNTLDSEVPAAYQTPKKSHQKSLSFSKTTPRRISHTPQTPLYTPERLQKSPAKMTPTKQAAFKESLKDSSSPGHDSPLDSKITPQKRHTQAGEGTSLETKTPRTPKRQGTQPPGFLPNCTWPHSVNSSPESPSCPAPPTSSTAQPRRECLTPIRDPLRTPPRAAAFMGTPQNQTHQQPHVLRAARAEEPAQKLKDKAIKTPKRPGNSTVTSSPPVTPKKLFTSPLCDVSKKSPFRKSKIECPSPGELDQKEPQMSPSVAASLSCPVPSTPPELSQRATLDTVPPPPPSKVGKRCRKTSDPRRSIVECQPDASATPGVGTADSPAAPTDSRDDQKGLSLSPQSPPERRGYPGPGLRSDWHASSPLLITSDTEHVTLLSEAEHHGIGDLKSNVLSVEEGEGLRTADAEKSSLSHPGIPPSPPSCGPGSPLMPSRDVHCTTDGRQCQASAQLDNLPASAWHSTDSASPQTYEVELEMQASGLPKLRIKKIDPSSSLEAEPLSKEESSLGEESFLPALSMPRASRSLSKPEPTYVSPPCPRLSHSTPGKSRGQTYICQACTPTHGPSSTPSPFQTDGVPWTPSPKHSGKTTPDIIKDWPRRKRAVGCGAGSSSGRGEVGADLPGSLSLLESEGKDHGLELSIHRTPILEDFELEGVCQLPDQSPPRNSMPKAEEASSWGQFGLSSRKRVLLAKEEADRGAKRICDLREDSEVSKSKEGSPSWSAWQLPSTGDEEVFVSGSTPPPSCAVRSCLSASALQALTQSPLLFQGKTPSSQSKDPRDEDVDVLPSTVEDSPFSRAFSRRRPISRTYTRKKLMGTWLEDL

Assays:
[1] = target: T1, MTBP-WT-3×Flag (HeLa Flip-In T-Rex stable line) (human) (UniProt Q96DY7); test: co-IP; Flag IP from native lysates of HeLa Flip-In T-Rex lines expressing MTBP-Flag3 (WT or mutants); endogenous Treslin/TICRR and Cdk8 by immunoblot; in S5 Fig lysates with or without lambda phosphatase, M2 anti-Flag magnetic beads
T1 sequence: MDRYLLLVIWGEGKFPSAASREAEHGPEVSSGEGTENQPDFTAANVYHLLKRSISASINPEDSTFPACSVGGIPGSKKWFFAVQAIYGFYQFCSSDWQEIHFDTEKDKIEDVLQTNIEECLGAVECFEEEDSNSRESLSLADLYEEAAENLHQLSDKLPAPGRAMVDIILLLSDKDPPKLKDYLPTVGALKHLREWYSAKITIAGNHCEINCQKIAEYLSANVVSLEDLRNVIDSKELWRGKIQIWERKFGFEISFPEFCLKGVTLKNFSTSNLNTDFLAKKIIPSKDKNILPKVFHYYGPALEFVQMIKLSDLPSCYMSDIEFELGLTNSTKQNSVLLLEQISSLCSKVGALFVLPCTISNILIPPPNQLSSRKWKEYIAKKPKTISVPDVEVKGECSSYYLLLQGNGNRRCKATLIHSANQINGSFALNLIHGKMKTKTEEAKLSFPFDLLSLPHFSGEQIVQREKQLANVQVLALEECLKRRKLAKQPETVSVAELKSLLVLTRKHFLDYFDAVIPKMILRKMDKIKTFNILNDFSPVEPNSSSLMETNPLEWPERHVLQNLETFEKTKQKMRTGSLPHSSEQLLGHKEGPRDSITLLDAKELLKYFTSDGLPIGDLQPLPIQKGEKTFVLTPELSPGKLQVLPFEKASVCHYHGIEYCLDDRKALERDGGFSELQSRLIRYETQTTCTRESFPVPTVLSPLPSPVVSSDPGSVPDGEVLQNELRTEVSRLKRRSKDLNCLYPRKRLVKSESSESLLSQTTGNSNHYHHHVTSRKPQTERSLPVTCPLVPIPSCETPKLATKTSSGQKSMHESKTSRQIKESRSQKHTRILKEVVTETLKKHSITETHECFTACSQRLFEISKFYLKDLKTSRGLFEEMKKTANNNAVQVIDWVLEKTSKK

[2] = target: T2, MTBP lacking amino acids D2 to S31 (293T) (human) (UniProt Q96DY7); test: co-IP; 293T transiently transfected, Fig 2B lanes 1–5: lanes 1–3 C-terminally Flag-GFP-tagged MTBP on anti-GFP nanobodies, the other lanes 3×Flag-tagged MTBP on anti-Flag; which lane holds which N-terminal deletion is not told; endogenous Treslin/TICRR and Cdk8 by immunoblot
T2 sequence: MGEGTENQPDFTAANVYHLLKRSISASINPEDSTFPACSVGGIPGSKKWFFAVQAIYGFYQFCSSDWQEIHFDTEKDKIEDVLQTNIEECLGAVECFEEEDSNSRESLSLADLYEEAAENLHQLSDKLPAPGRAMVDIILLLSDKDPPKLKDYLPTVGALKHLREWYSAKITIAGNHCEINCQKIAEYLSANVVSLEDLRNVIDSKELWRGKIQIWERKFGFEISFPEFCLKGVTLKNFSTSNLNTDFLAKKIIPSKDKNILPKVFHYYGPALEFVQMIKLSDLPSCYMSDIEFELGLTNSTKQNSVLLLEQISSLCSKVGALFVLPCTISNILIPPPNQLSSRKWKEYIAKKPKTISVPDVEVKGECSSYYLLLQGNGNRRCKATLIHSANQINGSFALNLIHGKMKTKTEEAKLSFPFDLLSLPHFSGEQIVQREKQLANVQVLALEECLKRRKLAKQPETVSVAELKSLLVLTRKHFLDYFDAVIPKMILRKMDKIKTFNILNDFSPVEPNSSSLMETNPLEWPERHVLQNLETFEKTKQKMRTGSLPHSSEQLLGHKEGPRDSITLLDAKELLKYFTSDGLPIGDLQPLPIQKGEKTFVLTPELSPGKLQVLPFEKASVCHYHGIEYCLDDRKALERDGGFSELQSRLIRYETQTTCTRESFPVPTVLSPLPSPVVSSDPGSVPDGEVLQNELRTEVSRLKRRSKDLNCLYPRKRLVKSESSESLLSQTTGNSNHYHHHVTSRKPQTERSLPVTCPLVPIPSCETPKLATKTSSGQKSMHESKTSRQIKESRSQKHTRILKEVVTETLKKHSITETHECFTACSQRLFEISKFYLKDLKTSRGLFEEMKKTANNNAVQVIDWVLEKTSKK

[3] = target: T3, MTBP lacking amino acids D2 to S55 (293T) (human) (UniProt Q96DY7); test: as above
T3 sequence: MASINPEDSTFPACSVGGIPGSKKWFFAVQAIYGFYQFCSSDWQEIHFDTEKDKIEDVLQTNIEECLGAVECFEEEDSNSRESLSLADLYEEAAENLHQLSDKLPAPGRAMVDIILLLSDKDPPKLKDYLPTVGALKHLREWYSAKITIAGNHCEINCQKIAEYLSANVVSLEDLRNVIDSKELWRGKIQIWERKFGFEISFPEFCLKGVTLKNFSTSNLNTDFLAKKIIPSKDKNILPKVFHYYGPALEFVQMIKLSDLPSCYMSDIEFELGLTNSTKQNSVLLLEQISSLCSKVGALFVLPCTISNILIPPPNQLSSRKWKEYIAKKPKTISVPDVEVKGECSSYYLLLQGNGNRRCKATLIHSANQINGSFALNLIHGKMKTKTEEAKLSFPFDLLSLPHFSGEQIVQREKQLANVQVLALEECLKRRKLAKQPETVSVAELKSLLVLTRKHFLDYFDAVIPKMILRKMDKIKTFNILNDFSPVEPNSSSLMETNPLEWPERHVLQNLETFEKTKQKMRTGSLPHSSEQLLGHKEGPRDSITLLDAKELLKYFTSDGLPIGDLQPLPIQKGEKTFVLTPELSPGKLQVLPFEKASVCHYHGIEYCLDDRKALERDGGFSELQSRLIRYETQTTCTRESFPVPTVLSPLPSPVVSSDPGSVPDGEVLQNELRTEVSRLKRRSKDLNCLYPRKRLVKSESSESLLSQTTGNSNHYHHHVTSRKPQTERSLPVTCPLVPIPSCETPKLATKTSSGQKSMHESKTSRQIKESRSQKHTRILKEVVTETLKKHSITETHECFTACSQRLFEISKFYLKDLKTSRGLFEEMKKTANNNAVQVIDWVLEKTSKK

Row | Substance | binding [1] | binding [2] | binding [3]
1 | Cdk8 (cyclin-dependent kinase 8), endogenous (from UniProt P49336 1-464) (enzyme) | binds | – | –
2 | Treslin/TICRR (TopBP1-interacting replication stimulating protein/TopBP1-interacting checkpoint and replication regulator), endogenous (from UniProt Q7Z2Z1 1-1910) | binds | no binding | no binding
